Sequences and labels used below:
B1: PhoQ; a variant is named by its letters at X, in order, P23837 (parent)
chain: MKKLLRLFFPLSLRVRFLLATAAVVLVLSLAYGMVALIGYSVSFDKTTFRLLRGESNLFYTLAKWENNKLHVELPENIDKQSPTMTLIYDENGQLLWAQRDVPWLMKMIQPDWLKSNGFHEIEADVNDTSLLLSGDHSIQQQLQEVREDDDDAEMTHSVAVNVYPATSRMPKLTIVVVDTIPVELKSSYMVWSWFIYVLSANLLLVIPLLWVAAWWSLRPIEALAKEVRELEEHNRELLNPATTRELTSLVRNLNRLLKSERERYDKYRTTLTDLTHSLKTPLXXLQXXLRSLRSEKMSVSDAEPVMLEQISRISQQIGYYLHRASMRGGTLLSRELHPVAPLLDNLTSALNKVYQRKGVNISLDISPEISFVGEQNDFVEVMGNVLDNACKYCLEFVEISARQTDEHLYIVVEDDGPGIPLSKREVIFDRGQRVDTLRPGQGVGLAVAREITEQYEGKIVAGESMLGGARMEVIFGRQHSAPKDE

Some of the results follow.

The test covers variants of B1. Put plainly: enrichment ratio after two sorts for PhoP signalling (ratio (wild type AVST 3.29)); higher = more functional. The conditions noted are these: with PhoP (E. coli).
Turning to SCNM, the enrichment ratio came to 10.2.
The value for VHLM was at most 0.25; that for ECFS was at most 0.25.
With HDWG the figure was at most 0.25; with AFVL, at most 0.25; with WWSS, at most 0.25.
With LKRP the figure was at most 0.25.
For VSCD, the enrichment ratio was at most 0.25.
The value for IIPA was at most 0.25; that for TGNI was 4.8; that for RAHR was at most 0.25.
With LRCR the figure was at most 0.25; with LRAL, at most 0.25.
The value for KWPP was at most 0.25; that for WMWG was at most 0.25.
In the case of MVDI, the enrichment ratio is at most 0.25.
As for STFV, the enrichment ratio was at most 0.25.
In the case of TLFR, the enrichment ratio is at most 0.25.
IVKF: the enrichment ratio stood at 0.272.
Regarding DMAW, the enrichment ratio was at most 0.25.
For the variant FHWG, the enrichment ratio was at most 0.25.
With LDTI the figure was at most 0.25; with SCNL, 0.751.
With ITCL the figure was at most 0.25.
The value for RCRI was at most 0.25.
On to RFSI, for which the enrichment ratio is at most 0.25.
With YSFS the figure was 0.335; with RHVQ, at most 0.25; with MHVL, at most 0.25.
With SQAC the figure was 13.4; with YWWK, at most 0.25.
Take QHVY: the enrichment ratio is at most 0.25.
As to DHFQ, the enrichment ratio is at most 0.25.
With PEKT the figure was at most 0.25.
The value for TTIW was at most 0.25; that for LVPE was at most 0.25; that for NGDY was at most 0.25.
The value for SDSF was at most 0.25; that for FRLD was at most 0.25; that for DWDL was at most 0.25.
For the variant DHKT, the enrichment ratio was at most 0.25.
The value for TICY was at most 0.25.
With HSKS the figure was at most 0.25; with EQYA, at most 0.25; with LECH, at most 0.25.
The value for PVYT was at most 0.25.
KLGI: the enrichment ratio was at most 0.25.
Regarding SIHN, the enrichment ratio was determined as 0.483.
As to IARS, the enrichment ratio was at most 0.25.
Turning to HYTP, the enrichment ratio is at most 0.25.
For the variant KADY, the enrichment ratio is at most 0.25.
With MYWT the figure was at most 0.25.
The value for YFAM was at most 0.25.
The value for PGKF was at most 0.25.
Take RGFG: the enrichment ratio is at most 0.25.
With KEKP the figure was at most 0.25; with PKFD, at most 0.25; with KGTL, at most 0.25.
With FWAM the figure was at most 0.25; with AFLQ, 3.65.
With KHQV the figure was at most 0.25; with QHYR, at most 0.25.
With NRHD, the enrichment ratio was at most 0.25.
With SQIN the figure was 12.8.
As for KLGN, the enrichment ratio is at most 0.25.
The value for VMPW was at most 0.25; that for HGIC was at most 0.25; that for NQRC was at most 0.25.
For the variant RHWG, the enrichment ratio is at most 0.25.
With YSIH the figure was at most 0.25; with SSKG, 0.383.
In the case of RFVM, the enrichment ratio is at most 0.25.
With GHRI the figure was at most 0.25; with TFDG, at most 0.25.
The value for YMQF was at most 0.25.
With NDYI the figure was at most 0.25; with YTVD, at most 0.25.
With ACPH, the enrichment ratio is at most 0.25.
With GQYI the figure was at most 0.25; with SDNE, at most 0.25; with TDGG, at most 0.25.
The value for LGGP was at most 0.25; that for GPRN was at most 0.25.
In the case of MDIR, the enrichment ratio was at most 0.25.
The value for IWYI was at most 0.25; that for PFNY was at most 0.25.
As to DFFQ, the enrichment ratio was at most 0.25.
DHMD: the enrichment ratio is at most 0.25.
With QPRN the figure was at most 0.25.
The value for SVTI was 12.
The value for GSLI was 15.5; that for MVSS was at most 0.25.
As for FMHR, the enrichment ratio was at most 0.25.
As to LPLE, the enrichment ratio is at most 0.25.
Take KAIY: the enrichment ratio is at most 0.25.
With GSFP the figure was at most 0.25; with SGEH, at most 0.25.
As to TMMK, the enrichment ratio was at most 0.25.
The value for VRMK was at most 0.25; that for ISYF was at most 0.25; that for FLAD was at most 0.25.
For the variant HWRQ, the enrichment ratio is at most 0.25.
As for FNRN, the enrichment ratio was at most 0.25.
With HAYV the figure was at most 0.25; with GHSE, at most 0.25; with QEVM, at most 0.25.
Take YWCL: the enrichment ratio was at most 0.25.
The value for GRCH was at most 0.25; that for TEKR was at most 0.25; that for PFPD was at most 0.25.
In the case of TFGH, the enrichment ratio is at most 0.25.
The value for YSSM was 0.616.
With MMFC the figure was at most 0.25; with RQQV, at most 0.25.
With MTMV the figure was 0.621.
ARDW: the enrichment ratio is at most 0.25.
The value for MYDI was at most 0.25; that for YKGI was at most 0.25; that for FMGV was at most 0.25.
With LPTE the figure was at most 0.25.
Regarding DGSC, the enrichment ratio is at most 0.25.
The value for RNTP was at most 0.25; that for FGSG was at most 0.25; that for NRDF was at most 0.25.
As to TWTC, the enrichment ratio is at most 0.25.
As for LMVW, the enrichment ratio was at most 0.25.
With WNAC the figure was at most 0.25; with ELYP, at most 0.25; with ECNL, at most 0.25.
The value for MHWN was at most 0.25.
With IDMD the figure was at most 0.25.
Take YRSL: the enrichment ratio was at most 0.25.
IRLE: the enrichment ratio was at most 0.25.
The value for RCPH was at most 0.25.
With IQDY the figure was at most 0.25; with DHDR, at most 0.25; with FIEY, at most 0.25.
The value for YEKT was at most 0.25.
For the variant FGNQ, the enrichment ratio is at most 0.25.
The value for HIKP was at most 0.25; that for SLWQ was at most 0.25.
With FWAN the figure was at most 0.25; with DMAL, at most 0.25; with KMFE, at most 0.25.
With FGFG the figure was at most 0.25; with SFGN, at most 0.25; with TVDS, at most 0.25.
Take RHHS: the enrichment ratio is at most 0.25.
The value for ATIC was 6.58; that for WRQY was 0.703; that for LQGR was at most 0.25.
The value for TKFE was at most 0.25; that for DNIP was at most 0.25.

These data come from a collection of fitness landscapes (doi:10.1126/science.1257360).
